The campaign covered roughly 52,000 compounds. About 1,700 (3.3%) were called active. Rule as the data show it: active = survival mostly below about 52% (no sharp cut-off); inactive = mostly above about 56%. The list shows a part of the results.

The subject of the experiment is Wild type. The experiment can be described thus: growth inhibition of S. aureus wild type versus tarO mutant, primary screen, teichoic acid synthesis inhibitors, RN4220, OD600 (AID 463173). The settings on record: S. aureus RN4220 wild type/DeltatarO growth, OD600, 18 h, stronger effect = lower value, screened at 18.75 µg/mL (by protocol).
With `CCc1ccc(S(=O)(=O)c2cn(Cc3ccccc3F)c3cc(OC)c(OC)cc3c2=O)cc1`, the survival was inactive: 85%. As for `COc1ccc(NC(=O)CSc2nnc(NC(=O)NC3CCCCC3)s2)cc1OC`, the survival is inactive: 65%. As to `Cc1cccc(CNC(=O)c2ccc3nc(Cc4ccccc4)oc3c2)c1`, the survival was inactive: 130%. The result for `O=C(NCCc1ccccc1)c1nn(-c2ccc(F)cc2)nc1CO` reads inactive: 126%; that for `COCCCn1c(SCC(=O)N2CC(=O)Nc3ccccc32)nnc1-c1ccoc1C`, inactive: 93%; that for `CCOc1ccc(C2c3[nH]c4ccccc4c3CCN2C(=O)CSCc2ccc(F)cc2)cc1` (configuration not stated), inactive: 113%. Then `Cc1ccc(CCNC(=O)c2c3c(nc4ccccc24)C(=O)N(C2CCCCC2)C3)cc1`, with inactive: 73%; and `Cc1cc(S(=O)(=O)NCC(c2ccco2)S(=O)(=O)c2cccs2)ccc1F` (configuration not stated), with inactive: 95%; and `Cc1cccc(NC(=O)CS(=O)(=O)c2cccc3nsnc23)c1`, with inactive: 64%. Then `COC(=O)c1ccccc1NC(=O)CSc1nc(=O)cc(N)n1-c1ccccc1`, with inactive: 72%. Consider `CCOc1ccc(NC(=O)CSc2nnc(-c3ccc(OCC)cc3)o2)cc1`, for which the survival was inactive: 85%. Take `Cc1ccc(NC(=O)Cn2c(=O)n(Cc3nc(-c4ccccc4)no3)c(=O)c3ccccc32)cc1C`: the survival was inactive: 71%. On to `Cc1cccc(NC(=O)COc2ccc(-c3nn(C)c(=O)c4ccccc34)cc2)c1`, for which the survival is inactive: 69%. `CCOc1ccc(CCNC(=O)CCCc2nnc3n(CC)c(=O)c4sccc4n23)cc1OCC`: the survival is inactive: 89%.

For `Cc1ccc(CNC(=O)c2c(-c3ccccc3Cl)noc2C)o1`, the survival was inactive: 81%. As to `Cc1coc2cc3oc(=O)c(CC(=O)NCc4cccc(Cl)c4)c(C)c3cc12`, the survival is inactive: 106%. `COc1cc(OC)c(NC(=O)CN2CCCN(Cc3ccccc3C)S2(=O)=O)cc1Cl`: the survival was inactive: 75%. The result for `Nc1ccc(N=C2C(=O)Nc3ccccc32)cc1` reads inactive: 111%; that for `COc1ccc(CNC(=O)Nc2ccc3c(c2)N(C)C(=O)c2ccccc2S3)cc1OC`, inactive: 86%. `Cc1ccc(-n2nnnc2CNC(=O)c2ccc(F)cc2)cc1C`: the survival is inactive: 124%. Then `CCOc1ccc(N2CC(C#N)=C3c4cc(OC)c(OC)cc4CCN3C2)cc1`, with inactive: 97%; and `COc1ccccc1-c1nn2c(=O)cc(CN3CCN(S(=O)(=O)c4ccc(C)cc4)CC3)nc2s1`, with inactive: 66%. On to `Brc1ccc(CNCCCSc2nnnn2-c2ccccc2)cc1`, for which the survival is inactive: 87%. The result for `Cc1cccc(-c2noc(CNC(=O)c3ccco3)n2)c1` reads inactive: 85%; that for `Clc1cccc(N2CCN(c3ncnc4c3nc3n4CCCC3)CC2)c1`, inactive: 117%; that for `CCOC(=O)c1ccc(NC(=O)C2Cc3ccccc3C(=O)O2)cc1` (configuration not stated), inactive: 79%. On to `COC(=O)c1cc2oc3ccccc3c2n1CC(=O)Nc1cc(OC)cc(OC)c1`, for which the survival is inactive: 72%. With `CC(C)(C)c1nn(-c2ccccc2)c2[nH]c(=O)c(CNc3ccc4c(c3)OCO4)cc12`, the survival is inactive: 90%.

Turning to `CC(=O)Nc1ccc(C)cc1-c1nc2ccccc2n(CC(=O)c2ccc(Cl)cc2)c1=O`, the survival was inactive: 104%. Then `CC(=O)N(Cc1cccnc1)c1nc2ccc(F)cc2s1`, with inactive: 68%. On to `COc1cccc2cc(-c3cn4c(n3)sc3cc(F)ccc34)c(=O)oc12`, for which the survival is inactive: 75%. Then `Cc1ccc(C2=Nc3ccccc3N(CC(=O)Nc3ccccc3C)C(=O)C2)cc1C`, with inactive: 85%; and `Cc1ccc(CNC(=O)NC2COc3ccccc3C2)cc1` (configuration not stated), with inactive: 94%; and `CCOc1ccccc1C(=O)N1CCN(CCc2ccccn2)CC1`, with inactive: 84%.

Regarding `Cc1cc(C)c(NC(=O)Cn2c(=O)n(CCc3ccccc3)c(=O)c3ccccc32)c(C)c1`, the survival was inactive: 101%. The result for `Cc1ccc(N2CCn3c2nc2c3c(=O)n(CCCc3ccccc3)c(=O)n2C)cc1` reads inactive: 84%; that for `O=C1CCCCCN1Sc1ccccc1`, inactive: 91%. In the case of `COc1ccc(OC)c(CNC(=O)c2ccccc2NC(=O)c2nsc3ccccc23)c1`, the survival was inactive: 76%. Regarding `Cc1c(Cl)cccc1NC(=O)Cn1nc(C(F)(F)F)c2c1CCC2`, the survival was inactive: 71%. As to `N#Cc1c2c(c(Nc3ccc(O)cc3)n3c1nc1ccccc13)CCC2`, the survival is inactive: 102%. Regarding `Cc1ccc(NC(=O)C2CCCN(S(=O)(=O)c3cccc4cccnc34)C2)c(Br)c1` (configuration not stated), the survival is inactive: 63%.

With `COc1ccc(CCNC(=O)c2c(C)oc3nc(C)nc(N4CCOCC4)c23)cc1OC`, the survival was inactive: 75%.

As to `Cc1cc(C)n(-c2nc3ccccc3nc2Nc2cccc(C(=O)NCCc3ccccc3)c2)n1`, the survival is inactive: 92%. The result for `C#CCNc1nc(CC(C)C)nc2c1nnn2Cc1ccccc1` reads inactive: 101%; that for `CCN1CCOC(=O)C1CC(=O)Nc1cccc(OC)c1` (configuration not stated), inactive: 69%; that for `Cn1cc(S(=O)(=O)N2CCCCCC2)cc1C(=O)NCc1ccc(Cl)cc1`, inactive: 110%. Then `CC1=C(C(=O)Nc2ccccc2)C(c2cccc(O)c2)n2nc(-c3ccccc3Cl)nc2N1` (configuration not stated), with inactive: 69%; and `Cc1onc(-c2ccccc2Cl)c1C(=O)Oc1ccc(Br)cc1`, with active: 4%; and `COc1ccc(S(=O)(=O)NNC(N)=S)cc1`, with inactive: 90%. `C#CCn1c(/C=C/c2ccc(Cl)cc2)nc2ccccc21`: the survival is active: 23%. In the case of `CC(C)CC(=O)NCC(c1ccc2c(c1)OCO2)N1CCN(c2ccccc2F)CC1` (configuration not stated), the survival was inactive: 76%. The result for `CCN(c1ccc(OC)cc1)S(=O)(=O)c1nnc(NC(=O)COc2ccc(F)cc2)s1` reads inactive: 71%; that for `Cc1ccccc1NC(=O)N1CCCC(c2nc(-c3ccc(F)cc3)no2)C1` (configuration not stated), inactive: 111%. Then `Cc1cccc(NC(=O)Cn2c(=O)sc3ccccc32)c1`, with inactive: 119%; and `Cc1cccc(-c2nc(SCC(=O)NCC3CCCO3)c3c(=O)n(C)c(=O)n(C)c3n2)c1` (configuration not stated), with inactive: 128%. Then `Cc1ccccc1N(C)C(=O)c1noc2c1COc1ccccc1-2`, with inactive: 90%; and `C=CCNC(=O)CSc1nc2cc(C)cc(C)c2cc1C#N`, with inactive: 100%; and `C=Cn1cc[n+](CC(=O)c2ccc(OC)cc2)c1`, with inactive: 119%. With `CCOC(=O)c1ccc(NC(=O)Nc2ccc3snnc3c2)cc1`, the survival is inactive: 146%. With `CCOc1ccc(-c2noc(CSc3nnc(-c4ccccc4)n3-c3ccccc3)n2)cc1`, the survival is inactive: 75%. The result for `O=C(CCn1c(=O)c2cccn2c2cccnc21)NCc1ccccc1Br` reads inactive: 93%. `CN1C(=O)c2ccccc2Sc2ccc(NC(=O)Cc3c(F)cccc3Cl)cc21`: the survival is inactive: 72%. Then `CCC(CC)C(=O)Nc1ccc(C(=O)OCc2cc(=O)n3nc(C4CC4)sc3n2)cc1`, with inactive: 87%; and `CCC(=O)Nc1ccc(C)cc1-c1nc2ccccc2n(C(C)C(=O)Nc2ccccc2CC)c1=O` (configuration not stated), with inactive: 121%. The result for `COc1cccc(CNC(=O)CN2N=C(c3ccc(C)cc3)CCC2=O)c1` reads inactive: 82%; that for `Cc1ccc(-n2nc(C(=O)N3CCN(c4ccccc4F)CC3)c3c4ccccc4n(C)c3c2=O)cc1`, inactive: 79%. Turning to `CCN(CC)CCCNC(=O)CCCn1c(=O)[nH]c2ccc(Br)cc2c1=O`, the survival was inactive: 63%. In the case of `CC(=O)c1ccccc1NS(=O)(=O)c1cc2c(cc1C)NC(=O)CO2`, the survival is inactive: 79%.

As to `Cc1ccc(N(C)S(=O)(=O)c2ccc3c(c2)C(C)(C)C(=O)N3C)cc1C`, the survival was inactive: 87%. As for `O=C(NCc1ccccc1Cl)c1cccn1-c1nnc(N2CCCCC2)s1`, the survival is inactive: 75%.

Regarding `CCC(C(=O)N1CCN(c2cc(Cl)ccc2C)CC1)n1nc(C)c2sc3ccccc3c2c1=O` (configuration not stated), the survival was inactive: 76%.

As to `Cc1ccc(Cl)cc1N1CCN(C(=O)c2cccn2-c2nnc(N3CCCCC3)s2)CC1`, the survival is inactive: 73%. Regarding `Fc1cccc(Cl)c1CNc1n[nH]c(-c2ccco2)n1`, the survival is inactive: 83%. Regarding `CC(C)CCNC(=O)c1ccc(Cn2c(SCC(=O)NC(C)C)nc3ccccc3c2=O)cc1`, the survival is inactive: 148%. Turning to `COc1cc(Cl)ccc1OC(=O)c1cn(-c2ccccc2OC)c(=O)c2ccccc12`, the survival was inactive: 73%. The result for `Cc1csc(NC(=O)/C=C\C(=O)O)n1` reads inactive: 99%; that for `CC1C(=O)Nc2ccc(S(=O)(=O)Nc3ccccc3Br)cc2NC1=O` (configuration not stated), inactive: 89%; that for `O=C(Nc1ccccc1)c1ccco1`, inactive: 109%. Then `Cc1ccc2nc(Cl)c3cc(C(=O)NCCCN4CCC(C)CC4)sc3c2c1`, with inactive: 98%; and `Cc1cc(NC(=O)c2ccc(-c3ccc(Br)cc3)o2)cc(-c2nc3ncccc3o2)c1O`, with inactive: 78%.

In the case of `COc1ccc2c(c1)c1c(c(=O)n(-c3ccccc3)c(=O)n1CC(=O)Nc1ccc(F)cc1)n2C`, the survival was inactive: 69%. Then `CCc1ccc(-n2c(SCC(=O)NC(C)CC)nc3n[nH]c(C)c3c2=N)cc1` (configuration not stated), with inactive: 124%; and `COc1ccc(N2CC(NC(=O)c3ccc4c(c3)OCO4)CC2=O)cc1OC` (configuration not stated), with inactive: 74%; and `COc1ccc(NC(=O)Cc2csc(COc3cccc(C)c3)n2)cc1OC`, with inactive: 84%. As to `Cc1ccc(C)c(S(=O)(=O)c2nnn3c2nc(NCc2cccs2)c2sccc23)c1`, the survival was inactive: 58%.

Regarding `CCc1cc2c(cc3c(=O)n(CC(=O)N4CCCCC4)nc(CC)n32)s1`, the survival is inactive: 71%. Then `CCCCN(C)CC(O)Cn1cc(/C=C/C(=O)c2ccc(OC)c(OC)c2)c2ccccc21` (configuration not stated), with inactive: 87%; and `CCCn1ccc2c(OCC(=O)NCc3ccc(F)cc3)cccc2c1=O`, with inactive: 47%; and `Cc1ccc(-c2nc(S(=O)(=O)c3ccc(Cl)cc3)c(N3CCCCC3)o2)cc1`, with active: 5%. Then `COc1ccc(CNC(=O)Cn2nnc(-c3ccccc3F)n2)cc1`, with inactive: 87%. The result for `COc1ccc(Cl)cc1C(=O)Nc1ccc2oc(-c3ccc(C(C)(C)C)cc3)nc2c1` reads inactive: 74%.

`CCn1c(=O)c2c(n3c(=S)[nH]nc13)-c1ccccc1CC21CCCCC1`: the survival is inactive: 109%.
